Results from PubChem BioAssay AID1508624 (National Center for Advancing Translational Sciences (NCATS), 2021).
Screen size: about 48,000 compounds; about 120 (0.25%) were called active. Inconclusive results (about 4%) are left out. Calls come from the whole dose curve; as a rule, active = well fitted activation curve with a large enough effect; inconclusive = small, poorly fitted or top-dose-only effect, or another doubt; inactive = no such curve, though single readings can be large or run the other way. This is one part of the list.

Experiment: Primary qHTS for Identification of Small Molecule Activators of Huntingtin-Antisense Promoter Activity; note: nearly all actives have a fitted effect of over 55% in size
Conditions: HEK293 HTT-AS promoter firefly luciferase reporter, 24 h; series mostly up to 57.5 µM; activity change, positive = activation: at the top concentration
Summary of the method: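 HEK293 cells carrying firefly luciferase reporters were seeded at 2,500 per well in Opti-MEM and cultured for 24 h. They were then treated with compounds at up to 57.5 uM final for 24 h at 37 degrees C before Dual-Glo luminescence readout.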

Activity change, positive = activation, inactive:
CN(Cc1ccccc1)c1nnc(NC(=O)Nc2cccc(Br)c2)s1 -34.3%, CCN(CC)S(=O)(=O)c1ccc(NC(=O)c2cc3ccc4cccnc4c3[nH]2)cc1 -13.1%, C=CC(=O)N1CCC[C@@H](n2nc(-c3ccc(Oc4ccccc4)cc3)c3c(N)ncnc32)C1 -17.9%, Cc1ccc(C(=O)n2nc(C)c(S(=O)(=O)N3CCCCCC3)c2C)cc1C -14.2%, COc1ccccc1NC(=O)CSc1nc(O)c(C/C=C/c2ccccc2)c(=O)[nH]1 -33.1%, CCc1nnc(NC(=O)CSc2nccn2Cc2ccc(C)cc2)s1 -22%, COc1ccc(CNC(=O)c2nc(SCc3ccc(C)cc3)ncc2Cl)cc1 -23%, COc1ccc(Cn2c(=O)n(-c3ccc(F)c(Cl)c3)c(=O)c3c2c2cc(OC)ccc2n3C)cc1 -6.02%, CCOC(=O)c1c(S(=O)(=O)N2CCC(C(=O)NCc3cccc(C)c3)CC2)c(C)n(C)c1C 0%, CCOc1cccc2sc(N3CCN(C(=O)c4ccc5c(c4)CCCC5)CC3)nc12 -12.6%, CC(C)C(NS(=O)(=O)c1ccc2c(c1)oc(=O)n2C)C(=O)N1CCN(c2cccc(Cl)c2)CC1 (stereo unspecified) -24.1%, CCN(CC)C(=O)c1ccc2c(c1)N(Cc1c(F)cccc1Cl)C(=O)c1ccccc1S2 -22.3%, Cc1ccn2c(Nc3c(C)cccc3C)c(-c3ccsc3)nc2c1 -25.3%, COc1ccc(N2CC(NC(=O)c3cccs3)CC2=O)cc1 (stereo unspecified) -12.3%, O=C(CSc1nc(=O)[nH]c2c1CCCC2)Nc1ccc(Cl)c(Cl)c1 -13%, CC1CN(C(=O)CCC(=O)NCc2cccc(Cl)c2)c2ccccc2S1 (stereo unspecified) -24.3%, O=C(O)c1ccc(Cn2cnc3cccnc32)cc1 -15.6%, CC1CCN(CC2CCN(C(=O)NCc3ccc(F)cc3)CC2)CC1 -6.03%, COc1ccccc1C(=O)N(Cc1nc(-c2cccc(C)c2)no1)C(C)C -22.6%, COc1ccc(S(=O)(=O)c2cnc3cc(OC)c(OC)cc3c2N2CCCC(C)C2)cc1 (stereo unspecified) -26.7%, CCOc1ccc(C2C(C(=O)Nc3ccccc3)=C(C)Nc3nc(SCc4cccc(OC)c4)nn32)cc1 (stereo unspecified) 4.14%, O=C(NCc1ccccc1)c1nc(S(=O)(=O)Cc2ccc(F)cc2)ncc1Cl -85.7%, Cc1ccc(/C=C/c2onc(C)c2S(=O)(=O)N2CCC(C(=O)N3CCN(c4cccc(C)c4)C(C)C3)CC2)cc1 (stereo unspecified) -26.9%, CC(C)CCOc1ccc(C2N=C(N)Nc3nc4ccccc4n32)cc1 (stereo unspecified) -23.9%, CCc1ccc(OCc2nc(-c3ccc(-n4cccc4)cc3)no2)cc1 1.37%, CCc1nc(-c2cc(S(=O)(=O)N3CCN(c4ccc(OC)cc4)CC3)ccc2OC)no1 -12.5%, C=CC(=O)Nc1ccc2ncnc(Nc3ccc(OCc4cccc(F)c4)c(Cl)c3)c2c1 -28.1%, CCOc1ccc(-c2cn3c(n2)sc2cc(C(=O)NCCc4ccc(OC)cc4OC)ccc23)cc1 -12.6%, O=S(=O)(NCCc1csc2nc(-c3ccccc3)nn12)c1cccs1 -32%, Cc1ccc(OCc2nc(-c3ccc(C(=O)NCCc4ccc(Cl)cc4)cc3)oc2C)cc1 2.43%, Cc1ccc(NC(=O)CN2C(=O)CCc3ccccc32)cc1C -17.6%, COc1ccc(NC(=O)c2nn(C)c3c2CS(=O)(=O)c2ccccc2-3)cc1Cl -14.7%, Cc1ccccc1CN1C(=O)c2ccccc2Sc2ccc(C(=O)NC3CCCCC3)cc21 -8.18%, COc1ccc(N(CC(=O)NC(C)c2ccccc2)S(=O)(=O)c2c(C)nn(C)c2C)cc1 (stereo unspecified) -14%, COc1ccc(N2CCN(Cc3nc4c(c(=O)[nH]c(=O)n4C)n3Cc3ccc(C)cc3)CC2)cc1 -19.3%, CCOC(=O)c1c(C)[nH]c(C)c1S(=O)(=O)N1CCCC(C(=O)N2CCN(c3ccccc3F)CC2)C1 (stereo unspecified) 0%, CCc1nn(CC(=O)N2CCN(c3cccc(OC)c3)CC2)c(=O)c2cc3occc3n12 -5.25%, CCCSc1oc(-c2ccco2)nc1S(=O)(=O)c1ccc(Br)cc1 -18%, COCCCNC(=O)Cn1nc(N2CCN(c3ccccc3)CC2)ccc1=O -14.6%, Cn1c(-n2cccc2)c(-c2c(-c3ccc(F)cc3)[nH]c3c2c(=O)n(C)c(=O)n3C)c(=O)n(C)c1=O -6.45%, COCCn1ccc2c(OCC(=O)Nc3c(C)cc(C)cc3C)cccc2c1=O -14.6%, Cc1ccc(S(=O)(=O)n2nc(-c3ccc(Cl)cc3)nc2NCc2ccccc2)cc1 -2.18%, CN(C)CC/C=C1\c2ccccc2COc2ccccc21 -14.4%, CC1CCc2c(sc3nnn(Cc4cccc(C(=O)OC(C)C)c4)c(=O)c23)C1 (stereo unspecified) -2.91%, CC(=O)N1CCc2c(sc3c2c(=O)n(-c2ccc(F)cc2)c(=O)n3Cc2ccc(C#N)cc2)C1 -10.8%, CCOc1ccccc1CNC(=O)C1CCN(S(=O)(=O)c2c(C)noc2/C=C/c2ccccc2F)CC1 12.4%, CCn1c(C(=O)NCc2ccccc2OC)cc2sccc21 2.76%, COc1ccc(CC(=O)Nc2cc(-c3cn4cccnc4n3)ccc2C)cc1OC -36.8%, CC1=C(c2ccc(C(C)C)cc2)S(=O)(=O)N=C1N1CCC(C(=O)NCc2ccccc2)CC1 -19.8%, COc1ccc(-n2ccnc(NCc3cccs3)c2=O)cc1OC -12.9%, O=S(c1cc(Cl)cc(Cl)c1O)c1cc(Cl)cc(Cl)c1O -4.76%, CC(Oc1c(Cl)cccc1Cl)C1=NCCN1 (stereo unspecified) -2.27%, COc1cccc2c1cc1c(=O)n(CC(=O)N3CCN(c4cccc(C(F)(F)F)c4)CC3)nc(C)n12 -19.9%, CCOc1ccccc1NC(=O)C(CC(C)C)NC(=O)C1CCC(C)CC1 (stereo unspecified) -18.9%, CCCCN(CC)C(=O)CSc1nc2n[nH]c(C)c2c(=N)n1-c1cccc(C)c1 -49.9%, O=C(COc1ccccc1Cl)Nc1nnc(S(=O)(=O)N2CCCC2)s1 -6.78%, Cc1ccc(NC(=O)CCc2c(C)nn(-c3ccc(N4CCOCC4)nn3)c2C)c(C)c1 -6.64%, COc1ccc(-n2nc3ccc(NC(=O)c4ccc(C#N)cc4F)cc3n2)cc1Cl 5.9%, O=C(Nc1cccc(C(F)(F)F)c1)c1cc(-c2ccc(Cl)s2)nc2ccccc12 -11.3%, O=C(O)Cn1c(-c2cccs2)cc2cc(Cl)ccc21 -5.93%, COc1ccc(Cn2c(CO)cnc2SCC(=O)Nc2ccc3c(c2)OCCO3)cc1 -7.98%, COc1cccc(COC(=O)c2ccc(-c3nnn(Cc4cccc(OC)c4)n3)cc2)c1 8.17%, CCOc1ccc(NC2SC(=O)N(Cc3ccccc3)C2=O)cc1 (stereo unspecified) -5.95%, COc1cccc2sc(NC(=O)CS(=O)(=O)c3ccc(C)cc3)nc12 -10.8%, O=c1[nH]c(=O)n([C@H]2C[C@@H](O)[C@@H](CO)O2)cc1C(F)(F)F -19.5%, CC(C)Oc1ccc(CNC(=O)c2ccc3nc(SCc4ccc(F)cc4)n(C)c3c2)cc1 -20.3%, Cc1ccccc1Cn1c(C)c(CNCc2ccccc2)c(C(=O)O)c1C -10.9%, CC(NC(=O)c1ccc2nc(CCc3ccccc3)oc2c1)c1ccccc1 (stereo unspecified) 8.51%, O=C(Nc1ccc2oc(-c3cccnc3)nc2c1)c1ccc(-c2cccc(OC(F)(F)F)c2)o1 -24.9%, COc1cccc(N2CCN(C(=O)c3ccc(CS(=O)c4cccc(Cl)c4)o3)CC2)c1 (stereo unspecified) -37.6%, O=C(NCCc1ccc(Cl)cc1)c1ccc2c(c1)N(Cc1ccccc1)CCS2 4.65%, COc1ccc(NC(=O)c2nc(SCc3ccccc3F)ncc2Cl)cc1 0.685%, Cc1ccc(C)c(NC(=O)CCc2c(C)n(C)c3cc(-c4ccccc4C)nn3c2=O)c1 -24%, COc1ccc(NC(=O)CN(C)S(=O)(=O)c2ccc3[nH]c4c(c3c2)CCCC4)cc1OC -26.1%, CCCCOc1ccc(S(=O)(=O)n2nc(C)c(S(=O)(=O)N3CCC(C)CC3)c2C)cc1 -3.24%, Cc1ccn2c(Nc3ccc4c(c3)OCO4)c(-c3ccc(O)cc3)nc2c1 9.86%, CCCOC(=O)C(C)n1nnc2sc(-c3ccccc3)cc2c1=O (stereo unspecified) 2.48%, CCCCN1CCCC1C(=O)Nc1c(C)cc(C)cc1C (stereo unspecified) -5.34%, CCCN1CCN(c2ncnc3sc(C(=O)Nc4ccc(N(CC)CC)cc4C)c(C)c23)CC1 -26.6%, COc1cccc(CNS(=O)(=O)c2cc(Br)cc3c2N(C(C)=O)C(C)C3)c1 (stereo unspecified) -10.2%, O=C(CSCc1cnn(-c2ccccc2)c1-n1cccc1)NCc1ccccc1F -26.7%, COc1cccc(CC(=O)NCc2ccc3c(c2)CCN3C(C)=O)c1 19.3%, CN(C)S(=O)(=O)Nc1ccc(-c2cn3ccsc3n2)cc1 29.3%, CCc1ccccc1NC(=O)C1CCN(c2nn3c(=O)cc(C)nc3s2)CC1 -15%, Cc1cccc(Cc2cnc(NC(=O)c3ccc4c(c3)CC(c3ccccc3)OC4=O)s2)c1 (stereo unspecified) -21.9%, Cc1ccc2oc(C(=O)Nc3ccc(S(=O)(=O)N(C)Cc4ccccc4)cc3)cc(=O)c2c1 5.83% [at 11.5 µM, percent change from vehicle, -100% = no light], COC(=O)c1ccccc1NC(=O)c1nc(S(=O)(=O)Cc2ccccc2F)ncc1Cl -18%, O=C(Nc1ccccc1)Nc1ccc(-c2ccc(C(=O)[C@H]3CCC[C@H]3C(=O)O)cc2)cc1 11.8%, C[C@]12CC[C@@H]3c4ccc(O)cc4CC[C@H]3[C@@H]1C[C@@H](O)[C@@H]2O -1.76%, CCc1nnc(NC(=O)c2nc(S(C)(=O)=O)ncc2Cl)s1 -84%, O=C(CSc1nc2c([nH]c3ccccc32)c(=O)n1-c1cccc(Cl)c1)N1CCc2ccccc21 -8.5%, COc1cccc(Cc2nc3ccccc3nc2SCC(=O)N2CCCCC2C)c1 (stereo unspecified) -38.5%, Cc1ccc2nc(NCc3ccccc3Cl)c3nnnn3c2c1 -10.1%, COc1cccc(C(=O)CN2CCN(S(=O)(=O)c3ccc(Cl)cc3)CC2)c1 -4.3%, COc1cc2ccccc2cc1C(=O)Nc1ccc2oc(-c3cc(Br)ccc3Cl)nc2c1 -5.18%, O=C(CN1C(=O)CSc2ccc(S(=O)(=O)N3CCCCC3)cc21)NCc1ccc(F)cc1Cl -21.9%
